Results from ChEMBL document CHEMBL5512621, “Overview of the development of protein arginine methyltransferase modulators: Achievements and future directions” (Eur J Med Chem, 2024).
Blank lines part the entries; values can stand above or below the molecule they belong to. Numbered stars: 1 amine (or outer) side, 2 acyl side, 3 side chain; on linkers, the order of the positions; unused ones are H or OH. Square brackets hold non-standard residues; d marks the D form. Peptide text beside a SMILES is read from it. X1 = N=C(NCCC[C@H](N[*:1])C(=O)[*:2])NCCC[C@H]1O[C@@H](n2cnc3c(N)ncnc32)[C@H](O)[C@@H]1O

Legend:
[1] = Inhibition of PRMT3 (unknown origin) using histone H4 substrate in presence of 3H-SAM by Topcount scintillation counting method; design: species or system Homo sapiens
[2] = target: T1, Protein arginine N-methyltransferase 5 (Homo sapiens, UniProt O14744); experiment: Inhibition of PRMT5 (unknown origin)
[3] = target: T1, Protein arginine N-methyltransferase 5; experiment: Inhibition of human PRMT5 (unknown origin)
[4] = Inhibition of cell growth in mouse Th1 cells; format: functional, cell-based
[5] = Inhibition of cell growth in mouse Th2 cells; format: functional, cell-based
PRMT5/MEP50 complex = PRMT5/MEP50 complex (Homo sapiens, UniProt O14744); experiment: Inhibition of PRMT5/MEP50 (unknown origin) using H4 peptide as substrate incubated for 25 mins in presence of [3H]-SAM by liquid scintillation counter method; format: protein-complex assay
[6] = target: T2, Histone-arginine methyltransferase CARM1 (Homo sapiens, UniProt Q86X55); experiment: Inhibition of PRMT4 (unknown origin)
T2 sequence (Q86X55 whole entry): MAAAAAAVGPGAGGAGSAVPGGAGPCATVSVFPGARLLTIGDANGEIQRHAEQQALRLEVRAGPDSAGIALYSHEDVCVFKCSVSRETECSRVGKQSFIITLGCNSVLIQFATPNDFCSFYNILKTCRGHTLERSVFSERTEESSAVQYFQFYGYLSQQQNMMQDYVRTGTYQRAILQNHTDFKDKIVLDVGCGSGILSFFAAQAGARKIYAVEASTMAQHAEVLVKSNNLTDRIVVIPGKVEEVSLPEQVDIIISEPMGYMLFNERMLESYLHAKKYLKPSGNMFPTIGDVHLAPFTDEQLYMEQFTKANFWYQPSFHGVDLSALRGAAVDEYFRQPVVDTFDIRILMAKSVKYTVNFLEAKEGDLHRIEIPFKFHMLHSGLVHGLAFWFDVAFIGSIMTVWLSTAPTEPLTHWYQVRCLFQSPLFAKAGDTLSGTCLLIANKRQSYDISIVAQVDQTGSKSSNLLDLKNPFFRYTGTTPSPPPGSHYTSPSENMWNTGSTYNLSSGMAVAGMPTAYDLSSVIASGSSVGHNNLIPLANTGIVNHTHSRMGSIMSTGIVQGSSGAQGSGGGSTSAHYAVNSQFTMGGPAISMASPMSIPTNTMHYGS

[7] = target: T3, Protein arginine N-methyltransferase 1 (Homo sapiens, UniProt Q99873); experiment: Inhibition of human PRMT1
[8] = target: T2, Histone-arginine methyltransferase CARM1; experiment: Inhibition of flag-tagged PRMT4 (2 to 585 residues) (unknown origin) expressed in HEK293F cells preincubated for 30 mins followed by biotinylated substrate and SAM addition by Topcount reader assay; format: cell-based
[9] = target: T4, Protein arginine N-methyltransferase 7 (Homo sapiens, UniProt Q9NVM4); experiment: Inhibition of PRMT7 (unknown origin)
T4 sequence (Q9NVM4 whole entry): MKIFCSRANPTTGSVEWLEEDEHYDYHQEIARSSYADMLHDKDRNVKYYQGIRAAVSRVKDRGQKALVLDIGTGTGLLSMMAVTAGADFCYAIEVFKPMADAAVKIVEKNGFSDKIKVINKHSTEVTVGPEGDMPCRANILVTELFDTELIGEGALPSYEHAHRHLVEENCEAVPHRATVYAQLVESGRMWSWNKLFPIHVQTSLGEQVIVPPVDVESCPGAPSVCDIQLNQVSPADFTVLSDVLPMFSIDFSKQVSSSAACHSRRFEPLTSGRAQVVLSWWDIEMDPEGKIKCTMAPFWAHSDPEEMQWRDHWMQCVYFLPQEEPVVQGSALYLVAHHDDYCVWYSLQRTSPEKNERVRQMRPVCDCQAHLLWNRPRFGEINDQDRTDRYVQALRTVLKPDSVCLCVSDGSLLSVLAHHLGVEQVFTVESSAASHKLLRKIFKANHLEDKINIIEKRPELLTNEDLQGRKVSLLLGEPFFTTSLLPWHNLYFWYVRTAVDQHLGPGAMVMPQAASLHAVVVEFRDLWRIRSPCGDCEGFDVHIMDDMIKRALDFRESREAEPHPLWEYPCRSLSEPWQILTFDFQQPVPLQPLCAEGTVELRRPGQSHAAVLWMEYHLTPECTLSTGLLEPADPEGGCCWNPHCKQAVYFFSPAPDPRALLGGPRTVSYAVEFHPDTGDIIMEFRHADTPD

[10] = target: T5, Protein arginine N-methyltransferase 9 (Homo sapiens, UniProt Q6P2P2); experiment: Inhibition of PRMT9 (unknown origin)
T5 sequence (Q6P2P2 whole entry): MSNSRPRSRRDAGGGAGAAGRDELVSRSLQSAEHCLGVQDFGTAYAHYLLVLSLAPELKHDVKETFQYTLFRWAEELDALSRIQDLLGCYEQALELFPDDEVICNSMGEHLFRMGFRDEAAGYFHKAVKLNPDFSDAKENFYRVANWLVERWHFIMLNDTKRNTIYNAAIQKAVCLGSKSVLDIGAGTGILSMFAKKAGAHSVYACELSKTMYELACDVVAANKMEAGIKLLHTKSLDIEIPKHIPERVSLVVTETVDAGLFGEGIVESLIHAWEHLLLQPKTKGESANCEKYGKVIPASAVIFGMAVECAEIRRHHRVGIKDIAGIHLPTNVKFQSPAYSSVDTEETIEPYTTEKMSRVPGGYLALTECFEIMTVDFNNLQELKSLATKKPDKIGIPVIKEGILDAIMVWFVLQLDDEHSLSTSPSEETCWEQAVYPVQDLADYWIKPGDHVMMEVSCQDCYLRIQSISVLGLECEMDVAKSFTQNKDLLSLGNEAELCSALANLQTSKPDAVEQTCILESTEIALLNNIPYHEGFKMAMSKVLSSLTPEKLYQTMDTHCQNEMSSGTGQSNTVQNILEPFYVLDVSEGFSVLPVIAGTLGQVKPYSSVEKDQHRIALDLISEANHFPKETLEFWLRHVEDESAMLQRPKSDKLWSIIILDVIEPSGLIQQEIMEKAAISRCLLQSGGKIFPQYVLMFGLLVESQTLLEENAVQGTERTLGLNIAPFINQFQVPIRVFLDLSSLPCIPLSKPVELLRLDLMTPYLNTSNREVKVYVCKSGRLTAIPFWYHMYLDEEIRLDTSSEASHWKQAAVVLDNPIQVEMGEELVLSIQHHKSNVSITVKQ

[11] = target: T5, Protein arginine N-methyltransferase 9; experiment: Inhibition of PRMT9 methylation (unknown origin) by in-cell Western blot analysis
[12] = target: T1, Protein arginine N-methyltransferase 5; experiment: Inhibition of PRMT5 methylation (unknown origin) by in-cell Western blot analysis
[13] = target: T1, Protein arginine N-methyltransferase 5; experiment: Inhibition of full-length PRMT5 (unknown origin) expressed in insect cells coexpressing 6His-tagged MEP50 using histone H4 peptide as substrate incubated for 4 hrs by fluorescence polarization assay; design: species or system Insect cell
[14] = target: T3, Protein arginine N-methyltransferase 1; experiment: Inhibition of PRMT1 (unknown origin) using histone substrate in presence of SAM by luminescence based microplate reader assay
[15] = target: Protein arginine N-methyltransferase 3 (Homo sapiens, UniProt O60678); experiment: Inhibition of PRMT3 (unknown origin)
[16] = Cmax in mouse at 1 mg/kg, po; format: ADME, organism-based; conditions: in vivo
[17] = AUC(0 to t) in mouse at 1 mg/kg, po; format: ADME, organism-based; conditions: in vivo
[18] = Oral bioavailability in mouse at 1 mg/kg; format: ADME, organism-based; conditions: in vivo
[19] = target: T4, Protein arginine N-methyltransferase 7; experiment: Inhibition of full-length PRMT7 (unknown origin) expressed in Sf9 cells using biotinylated H2B as substrate incubated for 60 mins in presence of 3H-SAM by Topcount plate reader analysis
[20] = target: T4, Protein arginine N-methyltransferase 7; experiment: Inhibition of PRMT7 (unknown origin) assessed as reduction in HSPA8 methylation
[21] = Inhibition of type I PRMTs (unknown origin); design: species or system Homo sapiens

UniProt O60678, sequence (O60678 whole entry): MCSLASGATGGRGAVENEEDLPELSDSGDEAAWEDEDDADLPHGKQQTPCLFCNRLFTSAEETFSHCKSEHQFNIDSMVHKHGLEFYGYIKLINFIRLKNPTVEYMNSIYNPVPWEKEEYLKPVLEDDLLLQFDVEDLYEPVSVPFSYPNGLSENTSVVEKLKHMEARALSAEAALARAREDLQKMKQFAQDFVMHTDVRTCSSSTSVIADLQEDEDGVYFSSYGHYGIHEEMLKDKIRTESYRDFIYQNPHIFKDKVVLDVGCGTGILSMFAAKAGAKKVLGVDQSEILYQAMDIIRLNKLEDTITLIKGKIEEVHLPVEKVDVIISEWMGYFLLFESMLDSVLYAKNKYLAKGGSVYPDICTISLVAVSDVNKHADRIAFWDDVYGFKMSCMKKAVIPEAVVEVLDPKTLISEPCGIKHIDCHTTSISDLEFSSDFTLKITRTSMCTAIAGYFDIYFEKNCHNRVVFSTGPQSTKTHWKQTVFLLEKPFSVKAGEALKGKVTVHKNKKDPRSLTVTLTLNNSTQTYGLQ
T3 sequence (Q99873 whole entry, the tested form may be a part): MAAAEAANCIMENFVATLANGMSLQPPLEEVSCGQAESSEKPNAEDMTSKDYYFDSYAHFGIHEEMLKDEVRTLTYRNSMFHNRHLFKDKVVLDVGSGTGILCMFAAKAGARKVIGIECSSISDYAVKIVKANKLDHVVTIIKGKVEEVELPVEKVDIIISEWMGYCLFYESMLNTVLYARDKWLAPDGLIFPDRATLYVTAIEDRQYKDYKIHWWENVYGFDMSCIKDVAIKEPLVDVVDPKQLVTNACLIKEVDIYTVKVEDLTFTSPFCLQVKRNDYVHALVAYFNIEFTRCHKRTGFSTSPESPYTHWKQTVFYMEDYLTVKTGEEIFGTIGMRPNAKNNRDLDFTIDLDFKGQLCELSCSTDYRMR

Compound: O=C(NCC(=O)N1CCCC1)Nc1ccc2cnccc2c1
IC50 [1]: 30 nM

Compound: COc1ccc2[nH]c(SCC(=O)Nc3ccccc3C(C)=O)nc2c1
IC50 [2]: 330 nM

Compound: CCn1c2ccc(Br)cc2c2cc(CNCc3ccccc3OC)ccc21
IC50 [4]: 1100 nM
IC50 [5]: 4000 nM

Compound: CNC[C@H](O)CN1CCc2c(cccc2OCc2ccc(-c3nccs3)cc2)C1
IC50 [6]: 21 nM

Compound: CNC(=N)NCCCNC(=O)Nc1ccc2cc(C(=O)OC)cc(O)c2c1
IC50 [7]: 200 nM

Compound: CNC[C@@H](O)COc1ccc(Cl)c(-c2nc(-c3c(C)noc3C)c(C)c(N3Cc4cnc(N5CCC5)nc4C3)n2)c1
IC50 [8]: 3 nM

Compound: Cc1cc(N)c2cc(Nc3nc(-c4ccc5c(c4)OCCO5)ncc3F)ccc2c1
IC50 [9]: 2500 nM

Compound: CNCCN(C)Cc1ccccc1OCc1cccc(Cl)c1Cl
IC50 [6]: 18 nM

Compound: CCOc1cnc(CC2CCN(C(C)=O)CC2)cc1C(=O)NC[C@@H](O)[C@@H]1CC2CCCCC2CN1 (some centres not stated)
IC50 [13]: 202 nM

Compound: Cc1cc(N)c2cc(Nc3nc(-c4cc5ccccc5o4)ncc3F)ccc2c1
IC50 [9]: 2400 nM

Compound: CC(=O)N1CCC(Nc2cc(C(=O)NC[C@@H](O)CN3CCc4ccccc4C3)ncn2)CC1
Cmax [16]: 1050 ng/mL
AUC(0-t) [17]: 3450 ng·h/mL
bioavailability [18]: 80.7%

Compound: CC(=O)N1CCC(Oc2nccc(C(=O)NC[C@@H](O)[C@@H]3CC4CCCCC4CN3)c2Cl)CC1 (some centres not stated)
IC50 [13]: 26 nM

Compound: CNCCN(C)Cc1c[nH]nc1-c1ccc(Oc2ccccc2)cc1
IC50 [15]: < 10000 nM

Compound: Cc1cc(N)c2cc(Nc3nc(-c4ccc5c(c4)OCO5)ncc3F)ccc2c1
IC50 [9]: 2300 nM

Compound: C=CC(=O)NCc1ccc(-c2ccc3[nH]nc(CN(C)CCN)c3c2)cc1
IC50 [15]: < 10000 nM

Compound: NC[C@@H](CC[C@H](N)C(=O)O)C[C@H]1O[C@@H](n2cnc3c(N)ncnc32)[C@H](O)[C@@H]1O
IC50 [21]: 13 nM

Compound: CSCC[C@H](NC(=O)[C@@H](NC(=O)[C@H](CO)NC(=O)[C@H](Cc1ccccc1)NC(=O)[C@@H]1CCCN1C(=O)[C@@H]1CCCN1C(=O)[C@H](CCCNC(=N)NCCC[C@H]1O[C@@H](n2cnc3c(N)ncnc32)[C@H](O)[C@@H]1O)NC(=O)[C@@H]1CCCN1C(=O)[C@H](C)NC(=O)[C@H](C)NC(=O)[C@@H]1CCCN1C(C)=O)[C@@H](C)O)C(=O)O (Ac-PAAP[X1]PPFSTM-OH)
IC50 [6]: 90 nM

Continued, values first:

IC50 [3]: < 50000 nM
Compound: CCn1c2ccccc2c2cc(CNCc3ccccn3)ccc21

IC50 (PRMT5/MEP50 complex): 1.4 nM
Compound: Nc1ncnc2c1ccn2[C@@H]1O[C@H]([C@H](O)c2ccc(Cl)c(F)c2)[C@@H](O)[C@H]1O

IC50 (PRMT5/MEP50 complex): 10 nM
Compound: Nc1ncnc2c1ccn2[C@@H]1O[C@H]([C@H](O)c2ccc(Cl)cc2)[C@@H](O)[C@H]1O

IC50 [2]: 30 nM
IC50 [10]: 10 nM
IC50 [11]: 145 nM
IC50 [12]: 519 nM
Compound: Cc1cn([C@@H]2O[C@H](CSCCNCc3cccnc3C(C)(C)C)[C@@H](O)[C@H]2O)c2ncnc(N)c12

IC50 [2]: 1.1 nM
Compound: CC(C)c1cc(O[C@H]2C[C@@H](n3ccc4cncnc43)[C@H](O)[C@@H]2O)c2c(c1F)CCN2

IC50 [14]: 2400 nM
Compound: N=C(N)c1ccc(Nc2ncnc(Nc3ccc(C(=N)N)cc3)c2[N+](=O)[O-])cc1

IC50 [6]: 2.8 nM
IC50 [2]: 0.42 nM
Compound: N=C(N)NCCC[C@H](N)C(=O)NCC(=O)N[C@@H](CCNC(=N)NCCCSC[C@H]1O[C@@H](n2cnc3c(N)ncnc32)[C@H](O)[C@@H]1O)C(N)=O

IC50 [15]: < 10000 nM
Compound: CN(CCN)Cc1ccccc1OCc1ccc(Cl)cc1Cl

IC50 [19]: < 2.5 nM
Compound: Nc1ncnc2c1ncn2[C@@H]1O[C@H](CSCCCNCc2ccc(-c3ccccc3)cc2)[C@@H](O)[C@H]1O

IC50 [19]: < 2.5 nM
IC50 [20]: 294 nM
Compound: Nc1ncnc2c1ncn2[C@@H]1O[C@H](CSCCCCNCc2ccc(-c3ccc(Cl)cc3)cc2)[C@@H](O)[C@H]1O

IC50 [2]: 22.5 nM
Compound: Nc1ncnc2c1ncn2[C@@H]1O/C(=C\C(N)CC[C@H](N)C(=O)O)[C@@H](O)[C@H]1O (some centres not stated)

IC50 [6]: 1750 nM
Compound: Nc1ncnc2c1ncn2[C@@H]1O[C@H](C[C@@H](N)CC[C@H](N)C(=O)O)[C@@H](O)[C@H]1O [SINEFUNGIN]
